PMC4336329 (PLoS ONE, 2015)
About 14,000 (4.5%) of roughly 310,000 compounds showed an effect of 50% or more. The effect is printed as a negative number. Some of the results follow.

Each molecule was assayed against human ether-à-go-go-related gene (hERG) potassium channel (human, UniProt Q12809) (assay: primary screen, population patch clamp on CHO cells stably expressing hERG).
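Note: peak tail current of the secondary pulse compared with the same well before compound.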

Chain of human ether-à-go-go-related gene (hERG) potassium channel (Q12809 whole entry, looked up): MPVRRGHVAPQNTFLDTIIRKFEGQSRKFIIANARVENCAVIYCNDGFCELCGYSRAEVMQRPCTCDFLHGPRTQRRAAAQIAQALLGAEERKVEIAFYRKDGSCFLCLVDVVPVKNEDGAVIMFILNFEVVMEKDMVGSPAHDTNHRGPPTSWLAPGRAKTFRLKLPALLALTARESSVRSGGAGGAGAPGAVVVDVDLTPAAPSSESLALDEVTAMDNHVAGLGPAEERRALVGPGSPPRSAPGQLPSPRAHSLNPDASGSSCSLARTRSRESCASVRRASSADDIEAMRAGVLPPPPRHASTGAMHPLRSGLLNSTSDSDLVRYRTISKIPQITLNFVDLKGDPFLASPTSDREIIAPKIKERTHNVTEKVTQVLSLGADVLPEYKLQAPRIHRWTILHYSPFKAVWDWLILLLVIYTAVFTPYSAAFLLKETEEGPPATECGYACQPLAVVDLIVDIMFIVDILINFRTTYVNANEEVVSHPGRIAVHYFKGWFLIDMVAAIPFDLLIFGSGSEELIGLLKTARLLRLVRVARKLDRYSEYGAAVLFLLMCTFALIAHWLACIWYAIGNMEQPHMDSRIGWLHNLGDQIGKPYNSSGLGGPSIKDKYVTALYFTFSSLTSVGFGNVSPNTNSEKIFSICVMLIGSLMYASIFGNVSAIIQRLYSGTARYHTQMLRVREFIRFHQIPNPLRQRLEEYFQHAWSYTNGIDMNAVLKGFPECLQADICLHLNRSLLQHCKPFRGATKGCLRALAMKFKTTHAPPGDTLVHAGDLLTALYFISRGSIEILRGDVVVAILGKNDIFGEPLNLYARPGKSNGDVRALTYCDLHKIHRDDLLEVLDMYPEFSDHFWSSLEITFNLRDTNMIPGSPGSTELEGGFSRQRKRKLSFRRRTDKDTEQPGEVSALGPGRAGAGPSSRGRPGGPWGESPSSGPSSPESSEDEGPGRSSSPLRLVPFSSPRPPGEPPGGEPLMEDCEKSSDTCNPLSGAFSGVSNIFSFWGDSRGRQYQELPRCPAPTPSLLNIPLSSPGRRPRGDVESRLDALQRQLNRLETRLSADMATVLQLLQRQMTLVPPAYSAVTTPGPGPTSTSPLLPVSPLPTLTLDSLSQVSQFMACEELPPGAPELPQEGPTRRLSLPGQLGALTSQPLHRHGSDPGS

| SMILES | hERG current change (%, negative = inhibition) at 10uM |
| --- | --- |
| Cc1cc(C)n(-c2nnc(NCc3ccc(Cl)cc3)nn2)n1 | 7.72% |
| CC(CC(=O)NNC(=O)c1ccncc1)c1ccccc1 (stereo not drawn) | 16.3% |
| c1ccc(-c2nnc(OCc3cccnc3)c3ccccc23)cc1 | -83.2% |
| CC(C)CC1(C(=O)NCCN2CCOCC2)C=CCN1C(=O)c1ccccc1 (stereo not drawn) | 25.1% |
| CCN=C(Nc1ccc(Cl)cc1)c1cccnc1 | -2.16% |
| COc1ccc(OCC(=O)Nc2ccccc2OC(F)F)cc1 | -22.2% |
| O=[N+]([O-])c1ccc(SCc2c(F)cccc2Cl)nc1 | 6.11% |
| Cc1cc(C)nc(/N=C2\NC(=O)CC(C(=O)O)N2c2ccc(Cl)cc2Cl)n1 (stereo not drawn) | -0.63% |
| CNc1oc(-c2ccc(OCc3ccccc3)cc2)nc1C#N | 18.3% |
| CCN1CCCC1CNC(=O)CCNC(=O)c1cc(OC)c(OC)c(OC)c1 (stereo not drawn) | -15.2% |
| CC(=O)Nc1ccc(NC(=O)CSc2nnc(CC(C)O)n2-c2ccccc2)cc1 (stereo not drawn) | 10.2% |
| COc1cccc(OCc2cc(C(=O)N3CCN(C4CCCCC4)C(=O)C3)no2)c1 | -3.09% |
| O=C(CN1CCCCCCC1)Nc1cc(Cl)cc(Cl)c1 | 1.75% |
| COc1cccc(NS(=O)(=O)c2ccc3c(c2)N(C(C)=O)CCO3)c1 | 8.67% |
| Cc1ccc(NC(=O)CS(=O)CC(=O)NC(C)CCc2ccco2)cc1Cl (stereo not drawn) | -20.1% |
| Cc1cc(C)c(C(N)=O)c(Nc2ccc(F)cc2)n1 | 15.6% |
| CN(C1CCCCC1)S(=O)(=O)c1ccc(S(=O)(=O)N2CCCC2)cc1 | 5.01% |
| C=CCn1c(=O)c(C=Nc2cccnc2Cl)c(O)n(CCCC)c1=O | -5.65% |
| C=CCn1c(O)c(C(CC)=NCC2CCCO2)c(=O)[nH]c1=O (stereo not drawn) | 3.61% |
| CC(=O)NCC1CCCN(C(=O)c2ccc(OC3CCN(Cc4ccccn4)CC3)cc2)C1 (stereo not drawn) | 25.8% |
| c1ccc(Nc2nc3ccccc3[nH]2)nc1 | -2.35% |
| NC(=O)CSc1nnc(-c2ccc(S(=O)(=O)N3CCOCC3)cc2)n1CC1CCCO1 (stereo not drawn) | -6.19% |
| c1ccc2nc(-c3ccc4c(c3)OCO4)ccc2c1 | 10.2% |

| SMILES | hERG current change (%, negative = inhibition) at 10uM |
| --- | --- |
| Cc1ccccc1S(=O)(=O)Nc1ncnc2ccccc12 | 5.21% |
| CC(C)C(=O)Nc1cccc(-c2nc3ccccc3c(=O)o2)c1 | -3.14% |
| Cc1cc(C)c(NC(=O)CN(C)C(C)C(=O)N2CCc3ccccc32)c(C)c1 (stereo not drawn) | -50.3% |
| Cc1ccc(S(=O)(=O)N2CCC(=O)N(C(CO)C(C)C)CC2)cc1 (stereo not drawn) | -8.73% |
| Cc1ccc(/C=C/C(=O)O)cc1S(=O)(=O)NCCO | 8.85% |
| Cc1ccc(CN2C(=O)N/C(=C/c3cc(C)n(-c4ccccn4)c3C)C2=O)cc1 | 1.54% |
| COc1ccc(CC(=O)NC2=NCCS2)cc1 | 3.1% |
| OCCN1CCN(c2nc(-c3ccccc3)c3cc(Br)ccc3n2)CC1 | -47.7% |
| CCCc1nc2ccc(NC(=O)c3cccs3)cc2c(=O)n1Cc1ccccc1Cl | 1.8% |
| COc1ccc(C2=NO[C@@](CC(=O)O)(C(=O)Nc3ccc4c(c3)OCCO4)C2)cc1 | 13.1% |
| CC(C)(C)C(=O)/C=C1\NC(=O)CS1 | 17.4% |
| COC(=O)CCCCC1SCC(NC(=O)c2ccccc2)C1OC(C)=O (stereo not drawn) | 26.5% |
| CCc1cccc(CC)c1NC(=O)C(CC)Sc1nc2ccncc2[nH]1 (stereo not drawn) | -10.9% |
| CCOC(=O)CNC(=O)Cc1ccc(OC)cc1 | 19.6% |
| NNC(=O)Cc1csc(-c2ccccc2)n1 | 5.22% |
| NC(=O)CC(NC(=O)Cc1ccc(Cl)cc1)c1ccc(NCC2CC2)c([N+](=O)[O-])c1 (stereo not drawn) | -41.7% |
| Cc1csc(SCC(=O)Nc2ccccn2)n1 | -14.9% |
| CC(=O)c1ccccc1OC(=O)c1c(F)cccc1F | 13.9% |
| CC1=NN2C(=N)/C(=C\c3cc(C)n(Cc4ccccc4)c3C)C(=O)N=C2S1 | 13.6% |
| Nc1nnc(CC(=O)N/N=C/c2ccc([N+](=O)[O-])cc2)s1 | 5.59% |
| CC12CCC(C(=O)Nc3c(Cl)cccc3Cl)(C(Br)C1=O)C2(C)C (stereo not drawn) | 7.19% |
| COc1ccc(NC(=O)CN(C)S(=O)(=O)c2ccccc2)cc1OC | -1.21% |
